From the supplement of paper PMC3334620
In all, about 33,000 sequences were measured (“E-score (-0.5 to 0.5)”: median about -0.036, highest 2% from about 0.37 on). The list shows a part of the results.

Each sequence was assayed against T1, Yer064c (UniProt P40041) (assay: PBM E-score (8-mer binding enrichment) (E-score (-0.5 to 0.5)); higher = stronger / more preferred TF binding; most listed sequences are background and not binding sites). Settings: protein concentration: 200 nM; construct: GST-full length.
T1 sequence: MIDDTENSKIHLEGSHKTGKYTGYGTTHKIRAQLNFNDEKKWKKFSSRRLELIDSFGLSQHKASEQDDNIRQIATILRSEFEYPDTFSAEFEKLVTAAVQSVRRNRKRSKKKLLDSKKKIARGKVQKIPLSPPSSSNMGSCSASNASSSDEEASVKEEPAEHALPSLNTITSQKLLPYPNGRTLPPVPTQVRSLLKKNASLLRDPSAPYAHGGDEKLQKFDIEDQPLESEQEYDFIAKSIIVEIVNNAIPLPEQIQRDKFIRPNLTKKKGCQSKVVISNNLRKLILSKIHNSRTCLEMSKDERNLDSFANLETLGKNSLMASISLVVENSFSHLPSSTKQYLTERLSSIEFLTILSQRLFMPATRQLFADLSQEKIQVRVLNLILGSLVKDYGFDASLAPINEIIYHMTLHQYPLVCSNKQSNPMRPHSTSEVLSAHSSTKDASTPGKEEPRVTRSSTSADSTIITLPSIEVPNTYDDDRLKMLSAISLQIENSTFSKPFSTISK
Method: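 Universal 'all 10-mer' protein binding microarrays (Agilent AMADID 015681) probed with GST-tagged S. cerevisiae TFs (full-length or DBD) made by in vitro transcription/translation (PURExpress), about 100-200 nM. Bound TF was detected with fluorescent anti-GST. Each ungapped 8-mer (which stands for itself and its reverse complement) is scored by the PBM enrichment score (E-score), a modified Wilcoxon-Mann-Whitney statistic from -0.5 to +0.5, computed with the Universal PBM Analysis Suite. Scale: above 0.35 generally sequence-specific binding.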

| Sequence | PBM E-score |
| --- | --- |
| CCGGAGGA | -0.212 |
| ATGGGCTA | 0.0866 |
| ACTAACTA | 0.286 |
| CAAAAGTA | 0.0505 |
| AAGTCTCG | 0.0175 |
| GGTTTTTA | 0.0583 |
| AGTTGGGC | -0.15 |
| GACCGAAA | 0.0708 |
| ATAGCTAC | -0.0568 |
| GCTCGAGA | -0.0023 |
| ACGACGCT | -0.265 |
| ACAATAAA | 0.101 |
| CCCGTTAA | -0.101 |
| AACATTGG | -0.218 |
| AGGTGTTA | -0.102 |
| CAGGGTTA | -0.0541 |
| ACTGTCAC | 0.114 |
| AGACATCA | 0.278 |
| CGACGTCC | -0.334 |
| GGCCATGA | 0.074 |
| GTTGTACA | 0.00913 |
| GCTTATGA | 0.254 |

| Sequence | PBM E-score |
| --- | --- |
| GCCGTTGA | 0.117 |
| CGGGGTCC | -0.35 |
| GCTCGATA | -0.0601 |
| AGATCTCA | 0.0373 |
| GAGAACGA | -0.0613 |
| AAGGGTCG | -0.0814 |
| GGCTGTAA | -0.0447 |
| AGGCATTA | -0.229 |
| CATCGACG | 0.035 |
| CGCATCCA | -0.0959 |
| GTAGTGAC | 0.132 |
| TCTCTGCA | 0.138 |
| AAGTTGTA | -0.0146 |
| CGGGGATA | -0.194 |
| CCACATCG | -0.0203 |
| ATAATTTG | 0.0214 |
| ACGCCACC | -0.145 |
| CGATTATC | 0.13 |
| AAACAACA | 0.101 |
| TCTGAAGA | -0.00804 |
| CTGTCAGA | -0.111 |
| CCTCGACA | -0.112 |

| Sequence | PBM E-score |
| --- | --- |
| CTACAGTA | 0.0252 |
| TAAGATGA | 0.193 |
| ATCCGTAG | -0.0702 |
| CTGCAATC | 0.0315 |
| GACAATAC | 0.00248 |
| AGTCCGAC | 0.31 |
| AGAACGGA | -0.109 |
| ATGGAGAA | -0.144 |
| GGAAATAC | -0.159 |
| AGCGTTAC | 0.0465 |
| CCCCAGAC | -0.166 |
| ACGCAACG | -0.0214 |
| ATATAGAC | 0.146 |
| CACCGTAA | 0.0186 |
| CACCTCGA | 0.0618 |
| ACTCAAAA | 0.317 |
| AGTCGTTC | 0.359 |
| AGATGGAT | -0.276 |
| ATTAGAGG | -0.0816 |
| CCTGCGCC | -0.291 |
| CCCAGGTC | -0.162 |
| ATTCTTAC | 0.0372 |

| Sequence | PBM E-score |
| --- | --- |
| AAAACTCG | 0.0941 |
| TCACTGAA | 0.106 |
| CATCTCTC | 0.00767 |
| AAAACTGA | 0.00201 |
| AGTCTGAC | 0.303 |
| GATGGCAC | -0.428 |
| CGCGACCA | -0.126 |
| GGTGGGTA | 0.0712 |
| ATCCTTCG | 0.0319 |
| CACGATTA | 0.193 |
| CGTAGCGA | -0.229 |
| ACTCGAAT | 0.199 |
| CAGCTTCA | 0.0349 |
| TCAGCGAA | 0.186 |
| CACACGAG | 0.0738 |
| ATTTTGTA | 0.00667 |
| AGATTATA | -0.00226 |
| AAACACGA | 0.0587 |
| ATTCTCCG | 0.0303 |
| CCGCAAGG | -0.283 |
| ATTGCGGA | 0.124 |
| GAGTCCAC | 0.325 |

| Sequence | PBM E-score |
| --- | --- |
| CTAACGCA | -0.00525 |
| AAGACGCT | -0.238 |
| GCGAGGCA | -0.0616 |
| TATGAACA | 0.0759 |
| AAATGGAA | -0.0228 |
| ATTTAATA | 0.117 |
| AAGAAGCA | -0.00711 |
| GCGCTACC | -0.175 |
| TTATCAAA | 0.233 |
| CTAATCGC | 0.128 |
| CGAGAAAA | -0.0321 |
| CTCAGACC | 0.121 |
| AGTAATAT | 0.0983 |
| CAGCCACC | 0.0165 |
| GTGAGGTA | 0.0206 |
| CAGGGCTC | -0.184 |
| CACAAAAG | 0.0565 |
| GAATATAA | -0.00715 |
| CTCGGGTC | -0.195 |
| AGGAGGCC | -0.278 |
| CGGTAATA | 0.0979 |
| GATACTAC | -0.0689 |
